Reference: a collection of fitness landscapes (doi:10.1126/science.1257360)
The list shows a part of the results.

B1: PhoQ; a variant is named by its letters at X, in order, P23837 (parent)
chain: MKKLLRLFFPLSLRVRFLLATAAVVLVLSLAYGMVALIGYSVSFDKTTFRLLRGESNLFYTLAKWENNKLHVELPENIDKQSPTMTLIYDENGQLLWAQRDVPWLMKMIQPDWLKSNGFHEIEADVNDTSLLLSGDHSIQQQLQEVREDDDDAEMTHSVAVNVYPATSRMPKLTIVVVDTIPVELKSSYMVWSWFIYVLSANLLLVIPLLWVAAWWSLRPIEALAKEVRELEEHNRELLNPATTRELTSLVRNLNRLLKSERERYDKYRTTLTDLTHSLKTPLXXLQXXLRSLRSEKMSVSDAEPVMLEQISRISQQIGYYLHRASMRGGTLLSRELHPVAPLLDNLTSALNKVYQRKGVNISLDISPEISFVGEQNDFVEVMGNVLDNACKYCLEFVEISARQTDEHLYIVVEDDGPGIPLSKREVIFDRGQRVDTLRPGQGVGLAVAREITEQYEGKIVAGESMLGGARMEVIFGRQHSAPKDE

Variants of: B1
Experiment: enrichment ratio after two sorts for PhoP signalling (ratio (wild type AVST 3.29)); higher = more functional
Conditions: with PhoP (E. coli)

Row | Variant | enrichment ratio
1 | GQYY | ≤ 0.25
2 | GAAP | ≤ 0.25
3 | WNQE | ≤ 0.25
4 | MPWA | ≤ 0.25
5 | MCVV | ≤ 0.25
6 | SWSY | ≤ 0.25
7 | FVVQ | ≤ 0.25
8 | GMAF | 2.59
9 | SCVY | 4.83
10 | TMTF | 11.5
11 | HPQT | ≤ 0.25
12 | RSFF | ≤ 0.25
13 | VFHA | ≤ 0.25
14 | IACT | ≤ 0.25
15 | FCWF | ≤ 0.25
16 | TNGR | ≤ 0.25
17 | APDS | ≤ 0.25
18 | IPQW | ≤ 0.25
19 | GLNV | ≤ 0.25
20 | FLEW | ≤ 0.25
21 | YAKA | ≤ 0.25
22 | SGMR | ≤ 0.25
23 | LPYQ | ≤ 0.25
24 | KQRL | ≤ 0.25

Row | Variant | enrichment ratio
25 | TLDW | ≤ 0.25
26 | LGMI | 12.6
27 | PVAC | ≤ 0.25
28 | LNWV | ≤ 0.25
29 | AVVK | 0.922
30 | DYSD | ≤ 0.25
31 | STYQ | ≤ 0.25
32 | AEPF | ≤ 0.25
33 | IKFL | ≤ 0.25
34 | HIRY | ≤ 0.25
35 | ISLF | ≤ 0.25
36 | EQFY | ≤ 0.25
37 | FEDD | ≤ 0.25
38 | ENRY | ≤ 0.25
39 | NWFL | ≤ 0.25
40 | VYEM | ≤ 0.25
41 | WESE | ≤ 0.25
42 | KRYS | ≤ 0.25
43 | TFMQ | ≤ 0.25
44 | LLGT | ≤ 0.25
45 | PQAL | ≤ 0.25
46 | EVMF | ≤ 0.25
47 | YMGH | ≤ 0.25
48 | VIPY | ≤ 0.25

Row | Variant | enrichment ratio
49 | PGWM | ≤ 0.25
50 | FFPY | ≤ 0.25
51 | FNWY | ≤ 0.25
52 | EEFG | ≤ 0.25
53 | IADC | ≤ 0.25
54 | ADTD | ≤ 0.25
55 | LIPH | ≤ 0.25
56 | EPSF | ≤ 0.25
57 | PEQF | ≤ 0.25
58 | HRQI | ≤ 0.25
59 | YSYE | ≤ 0.25
60 | QHGC | ≤ 0.25
61 | YLQY | ≤ 0.25
62 | IMGC | ≤ 0.25
63 | SENR | 0.957
64 | EHDL | ≤ 0.25
65 | HINR | ≤ 0.25
66 | YHVE | ≤ 0.25
67 | LEYF | 1.59
68 | IELI | 0.368
69 | ERPE | ≤ 0.25
70 | NLRY | ≤ 0.25
71 | TMRT | ≤ 0.25
72 | RIQL | ≤ 0.25

Row | Variant | enrichment ratio
73 | TTMW | ≤ 0.25
74 | IHHW | ≤ 0.25
75 | IEMV | 3.63
76 | VGEK | ≤ 0.25
77 | FCYN | ≤ 0.25
78 | DLKA | ≤ 0.25
79 | HNHF | ≤ 0.25
80 | HGPK | ≤ 0.25
81 | VKMT | ≤ 0.25
82 | VFWR | ≤ 0.25
83 | NKRH | ≤ 0.25
84 | QKLG | ≤ 0.25
85 | AEWL | 4.85
86 | MSFH | 4.47
87 | ATRE | ≤ 0.25
88 | EEAL | ≤ 0.25
89 | AAIN | ≤ 0.25
90 | LLVK | ≤ 0.25
91 | HDQA | ≤ 0.25
92 | AVLT | 2.4
93 | PGYH | ≤ 0.25
94 | VHCR | ≤ 0.25
95 | PSTQ | ≤ 0.25
96 | REDI | ≤ 0.25

Row | Variant | enrichment ratio
97 | RFSR | ≤ 0.25
98 | YCRE | ≤ 0.25
99 | NMMA | ≤ 0.25
100 | NRYL | ≤ 0.25
101 | YMHI | ≤ 0.25
102 | LTQN | ≤ 0.25
103 | YLGL | ≤ 0.25
104 | VDWI | ≤ 0.25
105 | EVYL | ≤ 0.25
106 | IVCF | ≤ 0.25
107 | DMAC | ≤ 0.25
108 | FRSG | ≤ 0.25
109 | FRVA | ≤ 0.25
110 | PLCR | ≤ 0.25
111 | NRCD | ≤ 0.25
112 | DRGM | ≤ 0.25
113 | MESM | 19
114 | AALL | 14.9
115 | MKGM | ≤ 0.25
116 | YNMG | ≤ 0.25
117 | GEYT | 0.289
118 | LIYC | ≤ 0.25
119 | PARF | ≤ 0.25
120 | AHVH | ≤ 0.25

Row | Variant | enrichment ratio
121 | INTG | ≤ 0.25
122 | TRAQ | ≤ 0.25
123 | EHYR | ≤ 0.25
124 | LHWH | ≤ 0.25
125 | CYFS | ≤ 0.25
126 | PWTR | ≤ 0.25
127 | ARLM | 6.76
128 | YYDG | ≤ 0.25
129 | EDAL | ≤ 0.25
130 | WEPC | ≤ 0.25
131 | ISRF | ≤ 0.25
132 | PSSW | ≤ 0.25
133 | GPIF | ≤ 0.25
134 | WTGG | ≤ 0.25
135 | TYNA | ≤ 0.25
136 | WTMF | ≤ 0.25
137 | TTGY | 20.5
138 | THEQ | ≤ 0.25
139 | GIME | 13.3
140 | AICS | 18.9
141 | VLCQ | ≤ 0.25
142 | QPQD | ≤ 0.25
143 | AYLG | 3.91
144 | FQQS | ≤ 0.25

Row | Variant | enrichment ratio
145 | IVTR | ≤ 0.25
146 | TDRQ | ≤ 0.25
147 | YLSY | ≤ 0.25
148 | TPHY | ≤ 0.25
149 | YDEQ | ≤ 0.25
150 | YAAM | ≤ 0.25
151 | QSSW | ≤ 0.25
152 | VIMH | ≤ 0.25
153 | FPWP | ≤ 0.25
154 | NYEG | ≤ 0.25
155 | AEHF | ≤ 0.25
156 | HLER | ≤ 0.25
157 | RVDR | ≤ 0.25
158 | MMVE | ≤ 0.25
159 | IQKY | ≤ 0.25
160 | WSDS | ≤ 0.25
161 | PPWF | ≤ 0.25
162 | TVEF | 3.81
163 | APIT | ≤ 0.25
164 | VYDN | ≤ 0.25
165 | TTHG | 9.57
166 | APED | ≤ 0.25
167 | ETCH | ≤ 0.25
168 | KHRG | ≤ 0.25

Row | Variant | enrichment ratio
169 | DQSY | ≤ 0.25
170 | CLFN | ≤ 0.25
171 | TDVW | ≤ 0.25
172 | GQCQ | ≤ 0.25
173 | KLSE | ≤ 0.25
174 | EIEF | ≤ 0.25
175 | ILTY | ≤ 0.25
176 | QWFS | ≤ 0.25
177 | LPMF | ≤ 0.25
178 | FEHI | ≤ 0.25
179 | SPSR | ≤ 0.25
180 | GHLD | ≤ 0.25
181 | DFMW | ≤ 0.25
182 | VTWE | ≤ 0.25
183 | THNT | 5.72
184 | EKAR | ≤ 0.25
185 | SQFQ | ≤ 0.25
186 | KCIT | ≤ 0.25
187 | YDGY | ≤ 0.25
188 | QNFY | ≤ 0.25
189 | SHKH | ≤ 0.25
190 | RQNS | ≤ 0.25
191 | ARKS | ≤ 0.25
192 | NNDK | ≤ 0.25

Row | Variant | enrichment ratio
193 | ANER | ≤ 0.25
194 | AWCN | ≤ 0.25
195 | SDQT | ≤ 0.25
196 | RDFV | ≤ 0.25
197 | SMWT | ≤ 0.25
198 | LETW | ≤ 0.25
199 | YSPW | ≤ 0.25
200 | RCIY | ≤ 0.25
201 | DQLK | ≤ 0.25
202 | HNFK | ≤ 0.25
203 | LFLC | ≤ 0.25
204 | FWMR | ≤ 0.25
205 | HGGF | ≤ 0.25
206 | WMGN | ≤ 0.25
207 | KGVL | ≤ 0.25
208 | HLLM | ≤ 0.25
209 | YVGW | ≤ 0.25
210 | GING | ≤ 0.25
211 | TATT | 8.46
212 | HMLC | ≤ 0.25
213 | TEMF | 5.53
214 | SLHE | ≤ 0.25
215 | NTHI | ≤ 0.25
216 | NHDS | ≤ 0.25

Row | Variant | enrichment ratio
217 | ECLG | ≤ 0.25
218 | RLYE | ≤ 0.25
219 | FIKK | ≤ 0.25
220 | LKHR | ≤ 0.25
221 | NLDS | ≤ 0.25
222 | FLTM | ≤ 0.25
223 | VGHY | ≤ 0.25
224 | DDPP | ≤ 0.25
225 | QVTT | ≤ 0.25
226 | WPWA | ≤ 0.25
227 | IYAA | ≤ 0.25
228 | LVTN | ≤ 0.25
229 | PIYN | ≤ 0.25
230 | WMVI | ≤ 0.25
231 | FTDH | ≤ 0.25
232 | LRLL | ≤ 0.25
233 | QPKP | ≤ 0.25
234 | FDCA | ≤ 0.25
235 | MRHA | ≤ 0.25
236 | GWLT | ≤ 0.25
237 | YLSQ | 0.283
238 | MWRH | ≤ 0.25
239 | KREH | ≤ 0.25
240 | SYDE | ≤ 0.25

Row | Variant | enrichment ratio
241 | MRNG | ≤ 0.25
242 | WMLD | ≤ 0.25
243 | MPHL | ≤ 0.25
244 | WIGR | ≤ 0.25
245 | HACP | ≤ 0.25
246 | YMKP | ≤ 0.25
247 | FMLW | 0.253
248 | FLGD | ≤ 0.25
249 | EEIN | ≤ 0.25
250 | HKNG | ≤ 0.25
251 | WLWH | ≤ 0.25
252 | YCPI | ≤ 0.25
253 | EVNW | ≤ 0.25
254 | KCLF | ≤ 0.25
255 | DIDS | ≤ 0.25
256 | SFGE | ≤ 0.25
257 | ECIG | ≤ 0.25
258 | WQGD | ≤ 0.25
259 | IFLM | ≤ 0.25
260 | FQQF | ≤ 0.25
261 | DIEF | ≤ 0.25
262 | NPQD | ≤ 0.25
263 | GHNA | ≤ 0.25
264 | FFDQ | ≤ 0.25

Row | Variant | enrichment ratio
265 | ESAD | ≤ 0.25
266 | MMML | ≤ 0.25
267 | ADKH | ≤ 0.25
268 | KFFW | ≤ 0.25
269 | GAEF | ≤ 0.25
270 | VCLV | 13
271 | PYIF | 0.283
272 | ITSE | ≤ 0.25
273 | RGGQ | ≤ 0.25
274 | SELH | 19.4
275 | YGSP | ≤ 0.25
276 | VFPE | ≤ 0.25
277 | FLFI | ≤ 0.25
278 | LPVD | ≤ 0.25
279 | SPPM | ≤ 0.25
280 | STER | ≤ 0.25
281 | HEWS | ≤ 0.25
282 | NVIR | ≤ 0.25
283 | DHGN | ≤ 0.25
284 | RTSC | ≤ 0.25
285 | EPDF | ≤ 0.25
286 | KISE | ≤ 0.25
287 | DKHQ | ≤ 0.25
288 | QWQL | ≤ 0.25

Row | Variant | enrichment ratio
289 | FHPD | ≤ 0.25
290 | YTFN | ≤ 0.25
291 | FQVY | ≤ 0.25
292 | QNQL | ≤ 0.25
293 | GLPT | ≤ 0.25
294 | MYRV | ≤ 0.25
295 | VTNK | ≤ 0.25
296 | NKTM | ≤ 0.25
297 | NKRM | ≤ 0.25
298 | RQCC | ≤ 0.25
299 | WNAG | ≤ 0.25
300 | RRVD | ≤ 0.25
301 | TFHI | ≤ 0.25
302 | TNIW | ≤ 0.25
303 | PMPL | ≤ 0.25
304 | SWYR | ≤ 0.25
305 | MFAY | ≤ 0.25
306 | TTEP | ≤ 0.25
